Reference: article PMC4336329 (PLoS ONE, 2015)
Among all 310,000 compounds or so, about 14,000 (4.5%) showed an effect of 50% or more. Effects have a minus sign here. Some of the results follow.

What follows are compounds tested against human ether-à-go-go-related gene (hERG) potassium channel (human, UniProt Q12809) (assay: primary screen, population patch clamp on CHO cells stably expressing hERG).
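Also: peak tail current of the secondary pulse compared with the same well before compound.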

Chain of human ether-à-go-go-related gene (hERG) potassium channel (Q12809 whole entry, looked up): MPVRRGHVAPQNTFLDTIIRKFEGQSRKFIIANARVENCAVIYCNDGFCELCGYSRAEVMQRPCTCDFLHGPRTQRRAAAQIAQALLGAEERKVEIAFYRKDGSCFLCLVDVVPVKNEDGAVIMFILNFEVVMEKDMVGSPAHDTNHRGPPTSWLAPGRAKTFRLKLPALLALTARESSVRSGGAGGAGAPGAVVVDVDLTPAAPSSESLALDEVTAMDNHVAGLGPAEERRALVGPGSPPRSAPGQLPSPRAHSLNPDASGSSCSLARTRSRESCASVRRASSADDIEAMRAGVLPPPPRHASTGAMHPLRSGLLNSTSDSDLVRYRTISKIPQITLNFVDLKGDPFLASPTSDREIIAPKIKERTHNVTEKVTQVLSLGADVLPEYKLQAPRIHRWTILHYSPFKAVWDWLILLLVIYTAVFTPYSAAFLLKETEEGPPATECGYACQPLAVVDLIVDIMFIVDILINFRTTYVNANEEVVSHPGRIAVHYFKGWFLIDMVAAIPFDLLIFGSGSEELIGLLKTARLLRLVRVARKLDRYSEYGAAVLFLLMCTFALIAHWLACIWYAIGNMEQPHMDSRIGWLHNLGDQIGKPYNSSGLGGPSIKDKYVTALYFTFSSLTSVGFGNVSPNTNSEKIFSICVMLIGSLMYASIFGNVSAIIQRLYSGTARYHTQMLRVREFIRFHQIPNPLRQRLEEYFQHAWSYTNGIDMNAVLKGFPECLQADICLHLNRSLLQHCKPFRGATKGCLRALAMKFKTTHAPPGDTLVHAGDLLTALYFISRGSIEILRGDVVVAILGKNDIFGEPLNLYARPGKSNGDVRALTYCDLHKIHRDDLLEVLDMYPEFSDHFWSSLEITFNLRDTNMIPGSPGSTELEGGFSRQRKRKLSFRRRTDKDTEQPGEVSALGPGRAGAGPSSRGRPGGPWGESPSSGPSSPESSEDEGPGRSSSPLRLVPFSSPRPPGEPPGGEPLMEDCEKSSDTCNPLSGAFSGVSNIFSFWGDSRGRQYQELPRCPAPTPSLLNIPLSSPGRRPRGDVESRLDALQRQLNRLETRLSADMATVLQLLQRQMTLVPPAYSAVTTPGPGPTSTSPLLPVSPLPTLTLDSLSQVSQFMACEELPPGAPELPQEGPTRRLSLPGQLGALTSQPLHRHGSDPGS

Row | Structure (SMILES) | hERG current change (%, negative = inhibition) at 10uM [%]
1 | NC(=S)NN=C1c2cc(OCCN3CCOCC3)ccc2-c2ccc(OCCN3CCOCC3)cc21 | -8.27
2 | O=C(COC(=O)c1ccccn1)NCc1ccc(Cl)cc1Cl | -8.18
3 | CC(C)c1ccc(NC(=O)Cn2nnc(C(=O)NCc3ccc4c(c3)OCO4)c2N)cc1 | 18
4 | Cc1cc(NC(=O)Cc2cccs2)nn1CC(=O)NCc1ccco1 | 4.69
5 | CCOc1ccc(N(CC(=O)NCc2ccco2)C(=O)CCC(=O)Nc2nccs2)cc1 | -4.65
6 | Cc1c(CC(=O)N2CCN(C(=O)C3COc4ccccc4O3)CC2)c(=O)oc2cc(O)cc(O)c12 (stereo not shown) | 24.8
7 | CC(=O)Nc1ccc(C=C(C(C)=O)C(C)=O)cc1 | 2.2
8 | Cc1ccc(S(=O)(=O)N(C)C)cc1NC(=O)Nc1ccccc1F | 9.15
9 | Cc1ccnc(NC(=O)c2ccccc2NC(=O)C(C)(C)C)c1 | -10.3
10 | NS(=O)(=O)c1ccc(CNC(=O)c2cccnc2Cl)cc1 | 10.1
11 | CCCCn1nc(NC(=O)c2cccs2)c2cc3ccccc3nc21 | -5.58
12 | c1ccc(CN2CCN(C(c3ccccc3)c3nnnn3Cc3ccccc3)CC2)cc1 (stereo not shown) | -64.7
13 | O=C(O)c1cc(-c2ccco2)nc2cc3ccccc3cc12 | 16.2
14 | Nc1nc(SCc2ccc(Cl)cc2Cl)ns1 | -5.61
15 | CC(C)CNC(=O)Nc1ccc(F)c(Cl)c1 | -2.1
16 | COc1ccc(-c2nn(-c3ccccc3)cc2C(=O)N2c3ccc(C)cc3C3CN(C)CCC32)cc1 (stereo not shown) | -31.7
17 | Nc1ccc(C2(c3ccc(N)cc3)c3ccccc3C(=O)c3ccccc32)cc1 | 13.2
18 | CCOC(=O)C1CC=C(Cl)CC1C(=O)Nc1nccs1 (stereo not shown) | 9.42
19 | Cc1ccc(NCC(=O)N/N=C\c2cccc(O)c2)cc1 | 1.98
20 | COc1cc(OCc2ccccc2)c(C(=O)/C=C/c2ccc3c(c2)OCO3)c(OC)c1OC | -0.152
21 | Cc1ccc(N=C2NC(=O)/C(=C/c3cccs3)S2)cc1C | 8.9
22 | CCCCn1c(N)c(N(CCOC)C(=O)C2CCN(S(=O)(=O)c3ccc(Cl)cc3)CC2)c(=O)[nH]c1=O | 20.7

Row | Structure (SMILES) | hERG current change (%, negative = inhibition) at 10uM [%]
23 | COC(=O)c1sc(N)c(C(=O)OC)c1COC(=O)CNS(=O)(=O)c1ccc(C)cc1 | -4.4
24 | O=C(Nc1cccc(S(=O)(=O)NC2=NCCC2)c1)c1cc(Cl)ccc1[N+](=O)[O-] | 2.97
25 | CN(Cc1ccccc1)S(=O)(=O)c1cccc2cccnc12 | -9.39
26 | O=C(N/N=C/c1ccncc1)c1cccc([N+](=O)[O-])c1 | -5.83
27 | O=C(Nc1ccccc1Cl)c1ccccc1 | 4.52
28 | O=S(=O)(Nc1cccc(-c2ccc(N3CCCCCC3)nn2)c1)c1ccccc1F | 11.7
29 | COc1ccc(C2CC(=O)Oc3c(C(CCN4CCN(c5ccccc5)CC4)c4ccc(N(C)C)cc4)c(OC)cc(OC)c32)cc1 (stereo not shown) | 18.4
30 | CC(C)(C)C(=O)C[n+]1ccc(C(N)=O)cc1.[Br-] | 0.811
31 | O=C(C/C=N/OCc1ccc(Cl)cc1Cl)c1ccccc1 | -6.79
32 | O=c1nc2ccccc2c2n1CC(CN1CCN(Cc3ccccc3)CC1)N2 (stereo not shown) | -66.1
33 | CCCOC(=O)C1C2C=CC(C2)C1C(=O)OCC(=O)c1ccccc1 (stereo not shown) | -18.1
34 | Cc1ccc(S(=O)(=O)c2nc(S(C)(=O)=O)sc2N2CCC(O)CC2)cc1 | -11.8
35 | C=CCn1c(SCC(=O)N2CCN(c3ccccc3)CC2)nnc1-c1ccco1 | -25.7
36 | CCCCn1c(N)c(N(CCOC)C(=O)c2ccc(-n3c(C)ccc3C)cc2)c(=O)[nH]c1=O | 8.54
37 | CC1(NC(=S)Nc2ccccc2)CCS(=O)(=O)C1 (stereo not shown) | 13.8
38 | O=C(N=C1SC2CS(=O)(=O)CC2N1c1ccc(Cl)cc1Cl)C1CCCO1 (stereo not shown) | 0.438
39 | COc1ccc(N2CC(=O)N(c3ccccc3)C2=S)cc1 | 3.25
40 | CC(C)NC(=O)CN(Cc1ccc(F)cc1)C(=O)CCC(=O)Nc1nccs1 | 6.82
41 | CCC(C)(C(=O)NC1CCCCC1)N(C)C(=O)c1ccccn1 (stereo not shown) | 2.9
42 | COC(=O)c1ccc(/C=C/c2c(-c3ccsc3)oc3ccc(N4CCOCC4)cc23)cc1 | 20.1
43 | CCn1c(SCC(=O)Nc2oc(C)c3c(C)n[nH]c(=O)c23)nc2sc(C)c(C)c2c1=O | -61.7
44 | COC(=O)c1ccccc1NC(=O)COC(C)=O | 4.95

Row | Structure (SMILES) | hERG current change (%, negative = inhibition) at 10uM [%]
45 | COc1cc(NC(=O)CSc2nnc3n2C(C)(C)Cc2ccccc2-3)cc(OC)c1 | 10
46 | CCS(=O)(=O)c1ccc(-c2cccc(NC(=O)c3ccco3)c2)nn1 | -3.4
47 | CCN=C(Nc1cccc(F)c1)SC1CC(=O)N(c2ccc(OC)cc2)C1=O (stereo not shown) | -3.5
48 | Cc1ccccc1C(=O)N=c1ccn(-c2nc3ccccc3nc2NS(=O)(=O)c2ccc(F)cc2)cc1 | 21.8
49 | Cl.NC12CC3CC(CC(C3)C1)C2 | 3.89
50 | C[C@H](NC(=O)C1CCN(S(=O)(=O)c2ccccc2)CC1)C(=O)NCc1cccc(C(F)(F)F)c1 | -2.33
51 | O=C(COc1ccccc1)NNc1c2ccccc2nc2ccccc12 | 6.67
52 | O=C(NNC(=O)c1cccs1)c1cccc(F)c1 | 10.1
53 | O=C1NNC(c2ccccc2)=N/C1=C\c1ccc(Cl)cc1 | -29.3
54 | Cc1cc(C)cc(C(=O)NCC(=O)OCC(=O)N2CCN(S(=O)(=O)c3ccc4ccccc4c3)CC2)c1 | -4.69
55 | COc1ccc(C(=O)Oc2ccc[nH]c2=O)cc1 | 12.5
56 | CNC(=O)COC(=O)/C=C/c1c(C)nn(-c2ccccc2)c1C | -3.71
57 | COc1ccc(S(=O)(=O)N2CCOCC2)cc1NC(=O)CSc1cccc[n+]1[O-] | -3
58 | Cc1cc(C)nc(SC(C)C(=O)Nc2ccc(S(N)(=O)=O)cc2)n1 (stereo not shown) | -2.33
59 | O=C(Nc1ccc2sc3ccccc3c(=O)c2c1)c1ccccc1Cl | -5.74
60 | O=C(c1csc(Nc2ccccc2Cl)n1)N1CCCC1 | -20.4
61 | O=S(=O)(c1ccc(Cl)cc1)N1CCCC1c1nc(-c2ccc(Cl)cc2)no1 (stereo not shown) | 18.9
62 | NC1=NC[C@H](Cc2ccccc2)N1CCc1cc(C(F)(F)F)cc(C(F)(F)F)c1 | -3.82
63 | Cc1c(NC(=O)c2cc(-c3ccc(F)cc3)on2)c(=O)n(-c2ccccc2)n1C | -9.68
64 | O=C(CCN1C(=O)/C(=C/C=C/c2ccccc2)SC1=S)Nc1nccs1 | 0.13
65 | O=C(N/N=C/c1ccc([N+](=O)[O-])cc1)c1cccnc1 | 0.658
66 | CCOC(=O)c1[nH]c2ccc(Br)cc2c1NC(=O)CCN1CCN(C(=O)OCC)CC1 | -44

Row | Structure (SMILES) | hERG current change (%, negative = inhibition) at 10uM [%]
67 | COCCCNC(=S)N/N=C/c1cccc(OC)c1O | 14.6
68 | CCc1cccc2[nH]c3cc([N+](=O)[O-])ccc3c12 | 7.79
69 | C=CCNc1nc(Cl)nc(Nc2cc(Cl)ccc2OC)n1 | 17.7
70 | CC(C)OP(=O)(OC(C)C)C(NC(=O)c1cccc([N+](=O)[O-])c1)C(N)=O (stereo not shown) | 4.87
71 | CCC1SC2=NC(C)=C(C(=O)OCC(C)C)C(/C=C/c3ccccc3OC)N2C1=O (stereo not shown) | -13.8
72 | CC(C)n1cc(-c2nc(C(=O)NN)cs2)c(=O)n(Cc2ccccc2)c1=O | 0.862
73 | CCN1CCCC1CNC(=O)c1csc2c1CCCC2 (stereo not shown) | -38.9
74 | Cc1ccc2[nH]c3nc(N/N=C/c4cccc(O)c4)nnc3c2c1 | 24.1
75 | Cc1cccc(-n2c(O)c(/C=N/NC(=O)c3ccncc3)c(=O)[nH]c2=O)c1 | 13.5
76 | CC(C(=O)N1CCOCCOCCOCCOCCOCC1)N1C(=O)c2ccccc2C1=O (stereo not shown) | 24
77 | Cc1ccc(N2C(=O)N(CC(=O)Nc3cccc(C)c3C)C(=O)C2C)cc1 (stereo not shown) | -11.8
78 | O=C(/C=C/c1ccccc1)Nc1cccnc1Cl | 17.6
79 | CCc1nnc(NC(=O)c2ccc3c(c2)C(=O)N(C(C)(C)C)C3=O)s1 | 7.02
80 | COc1ccc(C2C(C(=O)Nc3ccc4c(c3)OCCO4)c3ccccc3C(=O)N2C)cc1 (stereo not shown) | 13.3
81 | O=[N+]([O-])c1cc(-c2nnc(Nc3ccc(O)cc3)c3ccccc23)ccc1N1CCOCC1 | -0.242
82 | Cc1ccc(CS(=O)(=O)CCC(=O)NC2CC2)cc1 | 1.77
83 | COc1cc(-c2nnn(CC(=O)NCc3ccccc3)n2)cc(OC)c1OC | -3.93
84 | CCCCNC(=O)[C@@H]1CC=C[C@@H]2CCN(Cc3ccc(Cl)c(Cl)c3)C(=O)[C@@H]21 | -29.4
85 | Nc1ccc(-c2nc3ccc(N)cc3o2)cc1 | 12.6
